Reference: paper PMC4336329 (PLoS ONE, 2015)
Hit rate of the full screen: of about 310,000 compounds, about 14,000 (4.5%) showed an effect of 50% or more. Effects have a minus sign here. The list shows a part of the results.

molecular target: human ether-à-go-go-related gene (hERG) potassium channel (human, UniProt Q12809); experiment: primary screen, population patch clamp on CHO cells stably expressing hERG
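Also: peak tail current of the secondary pulse compared with the same well before compound.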

Sequence of human ether-à-go-go-related gene (hERG) potassium channel (Q12809 whole entry, looked up): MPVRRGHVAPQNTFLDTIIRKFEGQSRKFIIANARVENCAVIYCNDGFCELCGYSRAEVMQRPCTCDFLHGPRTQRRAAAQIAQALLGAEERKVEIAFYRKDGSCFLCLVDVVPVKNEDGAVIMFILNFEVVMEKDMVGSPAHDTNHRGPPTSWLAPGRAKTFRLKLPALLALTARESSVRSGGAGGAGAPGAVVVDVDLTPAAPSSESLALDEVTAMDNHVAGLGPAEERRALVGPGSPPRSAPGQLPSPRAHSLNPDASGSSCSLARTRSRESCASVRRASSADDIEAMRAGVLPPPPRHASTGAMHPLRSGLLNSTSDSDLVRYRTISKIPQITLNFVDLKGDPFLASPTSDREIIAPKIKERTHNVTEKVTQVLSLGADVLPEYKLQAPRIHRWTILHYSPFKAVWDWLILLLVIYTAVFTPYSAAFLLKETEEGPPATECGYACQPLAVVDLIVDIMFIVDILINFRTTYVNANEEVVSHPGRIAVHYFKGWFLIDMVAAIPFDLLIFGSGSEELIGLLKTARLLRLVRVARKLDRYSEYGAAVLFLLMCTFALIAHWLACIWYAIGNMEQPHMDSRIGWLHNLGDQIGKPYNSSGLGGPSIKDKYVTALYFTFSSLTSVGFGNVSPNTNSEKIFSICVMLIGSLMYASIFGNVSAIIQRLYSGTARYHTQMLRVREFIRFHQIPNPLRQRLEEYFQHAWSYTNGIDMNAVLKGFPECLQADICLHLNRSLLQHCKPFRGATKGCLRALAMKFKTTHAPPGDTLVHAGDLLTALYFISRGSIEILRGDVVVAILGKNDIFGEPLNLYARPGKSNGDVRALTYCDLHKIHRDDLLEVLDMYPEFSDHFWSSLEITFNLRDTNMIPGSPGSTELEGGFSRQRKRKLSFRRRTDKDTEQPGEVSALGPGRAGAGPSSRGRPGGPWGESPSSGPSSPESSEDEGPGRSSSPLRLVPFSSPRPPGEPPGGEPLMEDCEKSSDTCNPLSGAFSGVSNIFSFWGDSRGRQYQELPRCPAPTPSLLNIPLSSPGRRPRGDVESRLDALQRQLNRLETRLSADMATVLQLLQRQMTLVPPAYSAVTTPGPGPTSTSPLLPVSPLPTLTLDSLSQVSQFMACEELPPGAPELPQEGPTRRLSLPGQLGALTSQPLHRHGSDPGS

Compound	hERG current change (%, negative = inhibition) at 10uM
CC(=O)Nc1ccc(NC(=S)NC(=O)/C=C/c2ccco2)cc1	6.71%
Cc1cc2nc(-c3ccc(SCC(=O)N4CCc5ccccc54)nc3)[nH]c2cc1C	3.35%
O=c1cc(-c2ccc(O)cc2)oc2cc(O)cc(O)c12	-2.23%
CCCn1c(SC(C)C(=O)N2CCOCC2)nc2ccc(Br)cc2c1=O (centres unmarked)	-56.1%
O=C1[C@@H]2Cc3c([nH]c4ccccc34)C(c3ccccc3)N2C(=O)CN1C1CC1 (some centres unmarked)	8.53%
CCC(c1nnc(SCC(=O)Nc2cc(C)on2)o1)N(C)C (centres unmarked)	13.2%
CC1CCCN(S(=O)(=O)c2cccc(-c3cn4cccnc4n3)c2)C1 (centres unmarked)	-9.8%
Cc1nnc2c(N3CCN(C(=O)c4ccco4)CC3)nc3ccccc3n12	-33.1%
Cc1cc(C)cc(CSCC(=O)N/N=C/c2ccc(OCC(=O)NCc3ccco3)cc2)c1	-11.3%
Nc1ccc(S(=O)(=O)Nc2ccnn2-c2ccccc2)cc1	1.77%
COc1cccc(CNC(=O)C2CCN(Cc3cnn(-c4ccccc4)c3-n3cccc3)CC2)c1	-71.3%
CN(Cc1ccccc1F)c1ncnc2sccc12	-3.84%
CCn1c(C)nc2cc(C(=O)NNS(=O)(=O)c3ccc(C)cc3C)ccc21	-12.9%
COc1cccc(NC(=O)Nc2ccc(CC(=O)O)cc2)c1	12.7%
COc1ccc(C)cc1-n1nnnc1SCc1nc2ccccc2c(=O)[nH]1	-2.66%
CC(C)c1ccc(-n2c(O)c(C=NC(CCS(C)=O)C(=O)O)c(=O)[nH]c2=S)cc1 (centres unmarked)	20.4%
CN(CCc1ccccn1)C(=O)CCC1CCCN(C(=O)c2c(F)ccc(F)c2F)C1 (centres unmarked)	-11.7%
CN(C)C(=O)Nc1ccccc1CC[N+](=O)[O-]	-1.02%
COC(=O)C1=C(c2c(C)noc2C)C[C@@H]2CC[C@H]1N2C(=O)N1CCc2cc(OC)c(OC)cc2C1	-0.799%
O=C(COC(=O)Cn1nc(-c2ccccc2)oc1=O)Nc1ccc(F)cc1	4.6%
O=C(NNS(=O)(=O)c1ccccc1)C1CCCCC1	6.38%
COC(=O)CCC(=O)NNC(=O)C1CC1(c1ccccc1)c1ccccc1 (centres unmarked)	6.43%

Compound	hERG current change (%, negative = inhibition) at 10uM
Nc1nc2n(n1)C(c1cccs1)CC(c1ccc(Br)cc1)N2 (centres unmarked)	-57.5%
Cc1nn(Cc2cccc(C(=O)Nc3ccn(Cc4c(F)c(F)cc(F)c4F)n3)c2)c(C)c1[N+](=O)[O-]	-8.4%
O=C(CCN1C(=O)c2ccccc2C1=O)CN1CCOCC1	19.8%
O=C1CNC(=S)N1c1nc(-c2ccccc2)cs1	35.7%
NC(=O)c1ccccc1-c1nc(-c2ccccc2)no1	-76.5%
Clc1nc(CN2CCOCC2)nc2sc3c(c12)CCC3	14.5%
O=C(CCn1c(=O)sc2ccccc21)Nc1nccs1	-2.69%
C/C(CC(=O)c1ccccc1)=N\NC(=O)CC#N	12.1%
CC(=O)Nc1nc(C)c(CCC2OCCO2)c(=O)[nH]1	17.4%
O=C(Cn1ccc2ccccc2c1=O)NCCC(=O)N1CCN(c2ccccc2)CC1	4.3%
COc1ccc(CCNC(=O)C/C(C)=N/NC(=O)C23CC4CC(CC(C4)C2)C3)cc1OC	11.7%
N#C/C(=C\c1c[nH]c2ccccc12)C(=O)Nc1ncc(Cc2ccc(Cl)cc2Cl)s1	14.5%
Cc1ccc(N2CCN(C(=O)c3cccs3)CC2)c(C)c1	-10.6%
CCOC(=O)CSC1=C(C#N)C(c2ccc(C)cc2)C(C(=O)OC)C(=O)N1 (centres unmarked)	-4.56%
CCOc1ccc(NS(=O)(=O)c2ccc(C(=O)NCC(c3cccs3)N3CCOCC3)cc2)cc1 (centres unmarked)	-24.4%
CC(C)COP(=O)(c1ccc(N(C)C)cc1)C(Nc1ccccc1)c1cccnc1 (centres unmarked)	-30.3%
O=C(NC1CCCCC1)Oc1cc2oc(=O)sc2cc1Br	13.9%
Cc1ccc(F)cc1NC(=O)c1c(-c2ccccc2)noc1C	-3.67%
O=C(Nc1ccc(S(=O)(=O)N2CCCCCC2)cc1)c1c(F)cccc1F	12.3%
N#Cc1ccccc1N=Cc1ccc(Br)cc1	1.64%
CN1CCCc2cc(C#N)c(=O)[nH]c21	-16.2%
Cc1ccc(Cl)cc1NC(=O)NCc1ccccn1	5.36%
